From PubChem BioAssay AID2147 (National Center for Advancing Translational Sciences (NCATS), 2009)
About 3,600 (1.6%) of roughly 230,000 compounds were called active. Inconclusive results, whose numbers are uncertain, are shown with a selection of clear calls. Calls follow the shape of the dose curve; as a rule, active = well fitted inhibition curve with a large enough effect (not every such curve was filed as active); inconclusive = small, poorly fitted or top-dose-only effect, or another doubt; inactive = no such curve, though single readings can be large or run the other way. Potencies of inconclusive entries are doubtful fits and often do not repeat.

molecular target: Lysine-specific demethylase 4E (Homo sapiens) (UniProt B2RXH2); assay: qHTS Assay for Inhibitors of Human Jumonji Domain Containing 2E (JMJD2E); settings: JMJD2E catalytic domain, FDH-coupled NADH fluorescence (FDH is formaldehyde dehydrogenase); series mostly up to 57.1 µM; activity change, negative = inhibition: at the top concentration
Chain of UniProt B2RXH2 (B2RXH2 whole entry, looked up, the tested form may be a part): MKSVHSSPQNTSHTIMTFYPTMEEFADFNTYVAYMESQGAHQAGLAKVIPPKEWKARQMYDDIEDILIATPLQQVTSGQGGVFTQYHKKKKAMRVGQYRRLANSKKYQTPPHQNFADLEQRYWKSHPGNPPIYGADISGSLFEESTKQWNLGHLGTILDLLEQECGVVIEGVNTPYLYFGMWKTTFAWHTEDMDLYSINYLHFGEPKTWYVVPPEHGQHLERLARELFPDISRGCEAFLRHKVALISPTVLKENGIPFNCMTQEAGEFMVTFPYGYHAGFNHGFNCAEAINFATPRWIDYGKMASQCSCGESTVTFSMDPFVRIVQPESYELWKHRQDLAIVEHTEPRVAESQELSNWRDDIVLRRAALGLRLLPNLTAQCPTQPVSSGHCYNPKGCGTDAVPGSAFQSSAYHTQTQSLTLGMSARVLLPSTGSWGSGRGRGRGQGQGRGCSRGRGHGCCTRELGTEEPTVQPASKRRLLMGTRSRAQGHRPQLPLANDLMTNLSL
Also: nearly all actives have a fitted effect of over 50% in size.
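For activity change, negative = inhibition in this document: 0% = wells with enzyme and -100% = buffer wells without enzyme.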
Potency is read from the fitted curve at half-maximal effect; tags tell the direction and shape of the fitted curve.

Row | SMILES | Potency | activity change, negative = inhibition
1 | Cc1ccc(S(=O)(=O)Nc2ccc(O)c3ncccc23)cc1 | active: 25.1 µM | –
2 | CCN(CCO)C(=S)Nc1cc(C(=O)OC)ccc1C(=O)OC | inconclusive: 28.2 µM [inhibitor, partial curve] | –
3 | CC/C(=C\c1oc2cc3ccccc3cc2[n+]1CC)Nc1ccccc1 | inconclusive: 39.8 µM [inhibitor, single point] | –
4 | COc1ccccc1C(=O)NC(=O)CSc1cccc[n+]1[O-] | – | inactive: -12.9%
5 | O=C(CN1C(=O)C2(OCCO2)c2ccccc21)c1ccc(Br)cc1 | – | inactive: -3.82%
6 | N#Cc1c(N)nc2c3c(sc(=N)c2c1N)NC(=O)CC3c1c(F)cccc1Cl (stereo unspecified) | inconclusive: 28.2 µM [inhibitor, partial curve] | –
7 | CCOC(=O)c1sc(NC(=O)/C=C/c2cnn(C)c2C)c(C(=O)OC(C)C)c1C | inconclusive: 25.1 µM [inhibitor, partial curve] | –
8 | CN(C)c1ccc(P(=O)(Nc2cccc(C(F)(F)F)c2)N2CCOCC2)c(NC(=O)c2cccs2)c1 (stereo unspecified) | inconclusive: 35.5 µM [inhibitor, single point] | –
9 | Cc1ccc2c(c1)c1c(n2CC2COC(C)(C)O2)C(=O)CCC1 (stereo unspecified) | inconclusive: 31.6 µM [inhibitor, partial curve] | –
10 | COc1ccc(Cl)cc1NC(=S)NCCN1CCOCC1 | inconclusive: 39.8 µM [inhibitor, single point] | –
11 | COc1ccc(N(CCCN2C(=O)c3cccc4cccc(c34)C2=O)C(=O)c2cccc(OC)c2)cc1 | inconclusive: 39.8 µM [inhibitor, single point] | –
12 | CC(=O)OC[C@H]1O[C@@H](Sc2cccc3cccnc23)[C@H](OC(C)=O)[C@@H](OC(C)=O)[C@H]1OC(C)=O | inconclusive: 28.2 µM [inhibitor, partial curve] | –
13 | Brc1ccc(N/N=C(/N=Nc2nn[nH]n2)c2ccccc2)cc1 | active: 25.1 µM | –
14 | CC1(C)Oc2ccc3ccc(=O)oc3c2CC1=O | inconclusive: 31.6 µM [inhibitor, partial curve] | –
15 | Cc1ccccc1-c1cc(-c2ccccc2O)on1 | – | inactive: 7.71%
16 | CCOC(=O)c1c(NC(=O)C2=C(C)NC(=S)NC2c2ccc(C)cc2)sc(C)c1C (stereo unspecified) | – | inactive: 9.06%
17 | CCCCNC(=S)NNC(=O)c1c(C)nc2ccccn12 | inconclusive: 39.8 µM [inhibitor, single point] | –
18 | C(=N\NC1=Nc2cccc3cccc1c23)/c1ccccn1 | inconclusive: 39.8 µM [inhibitor, single point] | –
19 | Cc1ccc2[nH]c(=O)c3cc(C(=O)N4CCN(C(=O)c5ccco5)CC4)sc3c2c1 | inconclusive: 31.6 µM [inhibitor, partial curve] | –
20 | Nc1ccc2c(c1)Oc1ccccc1C=C2 | inconclusive: 28.2 µM [inhibitor, single point] | –
21 | COc1ccc(-c2cc(C(=O)NCc3cn(C)nc3C)c3ccccc3n2)cc1OC | inconclusive: 28.2 µM [inhibitor, single point] | –
22 | CCOC(=O)C1=C(C(F)(F)F)Nc2ncnn2C1c1ccc(OC)c(OC)c1OC (stereo unspecified) | inconclusive: 22.4 µM [inhibitor, partial curve] | –
23 | O=C(CN1CCCCC1)Nc1ccccc1-c1ccccc1 | – | inactive: -1.74%
24 | CSc1nc(-c2ccccc2)c2cc(Cl)ccc2n1 | inconclusive: 22.4 µM [inhibitor, single point] | –

Row | SMILES | Potency | activity change, negative = inhibition
25 | CCOc1cc(/C=C(/C#N)c2ccc(F)cc2)ccc1OCc1ccc(C(=O)O)o1 | inconclusive: 28.2 µM [inhibitor, single point] | –
26 | COc1ccc(NS(=O)(=O)c2ccc3nc(COc4cccc5ccccc45)[nH]c3c2)cc1 | – | inactive: 3.85%
27 | COc1ccc(NC2CCN(C3CC(=O)N(c4ccc(F)c(Cl)c4)C3=O)CC2)cc1 (stereo unspecified) | – | inactive: -3.04%
28 | CCOc1ccccc1/C=C(/NC(=O)c1ccccc1)C(=O)N(CC)CC | – | inactive: -7.49%
29 | O=C(Nc1ccccc1)c1ncoc1-c1ccc(Cl)cc1 | inconclusive: 39.8 µM [inhibitor, single point] | –
30 | CCCC(=O)Nc1cc(-c2nn(C)c(=O)c3ccccc23)ccc1N1CCOCC1 | – | inactive: -0.925%
31 | CCC(=O)Nc1ccc(-n2nnnc2SCC(=O)NNC(=O)c2ccco2)cc1 | – | inactive: 4.95%
32 | CCCC(=O)Nc1ccc2oc(-c3ccc(OC)c(Br)c3)nc2c1 | inconclusive: 12.6 µM [inhibitor, partial curve] | –
33 | c1ccc(-n2cnnc2SCc2cn3cccnc3n2)cc1 | inconclusive: 28.2 µM [inhibitor, partial curve] | –
34 | CN1CCN(C(=O)c2ccc(-c3cccs3)s2)CC1 | inconclusive: 28.2 µM [inhibitor, partial curve] | –
35 | COc1ccc(C)cc1N(C(=O)c1ccc(F)cc1)c1nc2ccccc2s1 | inconclusive: 8.91 µM [inhibitor, full curve] | –
36 | COc1ccc(N(Cc2cc3cc(OC)ccc3[nH]c2=O)C(=O)C2CCCO2)cc1 (stereo unspecified) | inconclusive: 28.2 µM [inhibitor, partial curve] | –
37 | O=C(Nc1ccc2nccnc2c1)c1ccco1 | inconclusive: 28.2 µM [inhibitor, partial curve] | –
38 | CC1CCN(C(=O)CSc2nc3ccccc3[nH]2)CC1 | – | inactive: -1.58%
39 | CCc1nc2ccccc2nc1N1CCN(S(=O)(=O)c2ccc(Cl)cc2)CC1 | inconclusive: 35.5 µM [inhibitor, single point] | –
40 | COc1cc(/C=N/NC(=O)c2ccc(O)cc2)ccc1OCC(=O)N1CC(C)OC(C)C1 (stereo unspecified) | inconclusive: 11.2 µM [inhibitor, partial curve] | –
41 | O=C(CN1CCSCC1)N/N=C/c1ccc(Cl)cc1 | inconclusive: 39.8 µM [inhibitor, single point] | –
42 | Clc1ccc(/C=C/c2nc(Cl)c(-c3ccc(Cl)cc3)c(Cl)n2)cc1 | inconclusive: 10 µM [inhibitor, partial curve] | –
43 | COc1ccc(-c2nnn(CC(=O)N(Cc3cccs3)C(C)C(=O)NCCC(C)C)n2)cc1OC (stereo unspecified) | – | inactive: -3.84%
44 | O=C(/C=C/c1ccco1)NC(=S)Nc1ccc(N2CCCC2)cc1 | active: 11.2 µM | –
45 | Cc1ccc2c(c1)C(=O)[C@]1(O)CCN(c3ccccc3)C1=N2 | inconclusive: 39.8 µM [inhibitor, single point] | –
46 | Cc1ccccc1CN1CCN(CC(=O)NCc2ccccc2)C1=O | inconclusive: 39.8 µM [inhibitor, single point] | –
47 | COc1ccc(CCN2CC(C#N)=C3c4cc(OC)c(OC)cc4CCN3C2)cc1OC | inconclusive: 22.4 µM [inhibitor, single point] | –
48 | COc1cccc2c(SCC(=O)N/N=C/c3ccc(O)cc3O)cc(C)nc12 | active: 28.2 µM | –

Row | SMILES | Potency | activity change, negative = inhibition
49 | COc1ccc(-c2csc3ncnc(Oc4ccc5c(C)cc(=O)oc5c4)c23)cc1 | inconclusive: 28.2 µM [inhibitor, partial curve] | –
50 | COc1cc(C(=O)NC(=S)N(CCc2ccccc2)CCc2ccccc2)cc(OC)c1OC | – | inactive: 1.43%
51 | CCOC(=O)C1=C(CS(=O)(=O)c2ccc(F)c(C)c2)NC(=O)NC1c1ccc(O)c(O)c1 (stereo unspecified) | active: 14.1 µM | –
52 | CCc1nnc(NC(=O)CSc2ccc(-c3nc4ccccc4[nH]3)cn2)s1 | inconclusive: 31.6 µM [inhibitor, single point] | –
53 | COCCNC(=O)C(c1c[nH]c2ccccc12)N(C(=O)c1snc(C(N)=O)c1N)c1cccc(OC)c1 (stereo unspecified) | inconclusive: 35.5 µM [inhibitor, single point] | –
54 | C(#Cc1ccccc1)Cn1nnc2ccccc21 | inconclusive: 31.6 µM [inhibitor, single point] | –
55 | CC(C)(C)OC(=O)NCCc1nnc(SCc2cccc(Cl)c2)o1 | inconclusive: 11.2 µM [inhibitor, partial curve] | –
56 | COc1cc(CN2CCc3ccccc3C2)ccc1O | inconclusive: 35.5 µM [inhibitor, single point] | –
57 | Cc1ccccc1-n1c(C)cc(/C=C2/C(=N)N3C(c4ccccc4)=CSC3=NC2=O)c1C | inconclusive: 35.5 µM [inhibitor, single point] | –
58 | CC1CCC/C(=C\Nc2ccc3c(c2)OCO3)C1=O (stereo unspecified) | inconclusive: 28.2 µM [inhibitor, single point] | –
59 | Cc1ccc2cc3cc(C(=O)N4CCCCCC4)oc3nc2c1 | inconclusive: 25.1 µM [inhibitor, partial curve] | –
60 | CC1(C(=O)NNC(=O)c2ccc(=O)oc2)CC1Br (stereo unspecified) | inconclusive: 28.2 µM [inhibitor, single point] | –
61 | Clc1nssc1=Nc1ccccc1 | active: 10 µM | –
62 | CCOC(=O)C(NCCc1ccccc1F)(NC(C)=O)C(F)(F)F (stereo unspecified) | – | inactive: -3.45%
63 | CCN1CCN(CCOc2cccc(Oc3ccccc3)c2)CC1 | inconclusive: 22.4 µM [inhibitor, single point] | –
64 | O=C(Oc1ccc2ccccc2c1Cl)N1CCCC1 | – | inactive: 3.32%
65 | CCn1c(Cc2cccc3ccccc23)nnc1SCC(=O)Nc1nccs1 | – | inactive: -11.1%
66 | CCCCNC(=O)CC1Nc2ccccc2NC1=O (stereo unspecified) | inconclusive: 31.6 µM [inhibitor, partial curve] | –
67 | Cc1cc(C)n2c(SCC(=O)N(C)C3CCS(=O)(=O)C3)nnc2n1 (stereo unspecified) | inconclusive: 28.2 µM [inhibitor, single point] | –
68 | CCC(C)NC(=O)CSc1nnc(-c2cc(-c3cccs3)nc3ccccc23)o1 (stereo unspecified) | inconclusive: 28.2 µM [inhibitor, partial curve] | –
69 | CNC(=O)c1sc(=S)n(-c2ccc(OC)cc2)c1N | – | inactive: -2.65%
70 | CCN(CC)S(=O)(=O)c1cccc(NC(=O)CSc2nnc(N)s2)c1 | – | inactive: -5.36%
71 | CC(C)OC(=O)CC(=O)CSc1nc2c(cc1C#N)CCCCC2 | inconclusive: 25.1 µM [inhibitor, partial curve] | –
